Values joined by “and” are separate entries in the source; they are usually repeats but may differ in a detail not shown here. Equal entries are not always repeated. Among all 420,000 compounds or so, about 50,000 (12%) were called active. The inconclusive results got no clear call from the source; some entries with a clear call stand among them for comparison. The call rests on the fitted dose curve; in most records, active means well fitted inhibition curve with a large enough effect; inconclusive means small, poorly fitted or top-dose-only effect; inactive means flat fitted curve, though single readings scatter. Potencies of inconclusive entries are doubtful fits and often do not repeat.
assay: qHTS for Inhibitors of human tyrosyl-DNA phosphodiesterase 1 (TDP1): qHTS in cells in presence of CPT; conditions: chicken DT40 Tdp1-/-;hTDP1 cells + 20 nM CPT, ATP luminescence, 48 h; series mostly up to 46.2 µM; further: nearly all actives have a fitted effect of over 55% in size
Procedure, shortened: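 Cell growth measured by CellTiter-Glo luminescence after a minimum 48 h, 37 C compound exposure with 20 nM CPT in Tdp1-knockout DT40 cells stably expressing hTDP1, seeded 400/well; qHTS titration format.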
Potency means the concentration at half of the fitted maximal effect; tags describe the fitted curve by direction and shape.

| SMILES | Potency |
| --- | --- |
| COc1ccc(S(=O)(=O)NCC(c2ccc3c(c2)OCO3)N2CCOCC2)cc1 (configuration not stated) | inactive |
| O=C(NCCO)c1ccc(-c2nnc(N3CCOCC3)c3ccccc23)cc1 | inactive |
| CCC/C=N/NC(=O)c1ccccc1O | inactive |
| C=CCSC1=C(C#N)C(c2ccccc2)CC(=O)N1 (configuration not stated) | inconclusive: 29.1 µM [inhibitor, single point] |
| CCOC(=O)N1CCN(c2nc3ccccc3nc2C(C#N)S(=O)(=O)c2ccc(C)cc2)CC1 (configuration not stated) | inconclusive: 18.4 µM [inhibitor, single point] |
| COc1ccccc1CNC(=O)C1CC(c2ccc([N+](=O)[O-])cc2)=NO1 (configuration not stated) | inconclusive: 14.6 µM [inhibitor, single point] |
| Cc1cc(=O)[nH]c(N/N=C/c2cc(C)n(-c3ccccc3)c2C)n1 | inconclusive: 25.9 µM [inhibitor, single point] |
| O=C(Nc1ccn(CCCNCC(c2ccccc2)c2ccccc2)c(=O)n1)OCc1ccccc1 | inconclusive: 29.1 µM [inhibitor, single point] |
| CCCCCCCCCCC[C@@H](C[C@@H]1OC(=O)[C@H]1CCCCCC)OC(=O)[C@H](CC(C)C)NC=O | inactive and inconclusive: 18.4 µM [inhibitor, single point] |
| CC(N)(C(=O)O)c1ccc(P(=O)(O)O)cc1 (configuration not stated) | inactive |
| CC(=O)Oc1ccc(-c2ccc(C(=O)OCC(=O)N(C)CC(=O)Nc3ccccc3Cl)cc2)cc1 | inconclusive: 32.6 µM [inhibitor, partial curve, poor fit] |
| Cc1nc(N2CCN(S(=O)(=O)c3ccccc3)CC2)c2cc(-c3ccccc3)sc2n1 | active: 14.6 µM |
| CN(C)S(=O)(=O)N1CCC(Oc2cccc(C(=O)NC3CCCCC3)c2)CC1 | active: 18.4 µM |
| COc1ccc(-c2cc(C(=O)OC3CCOC3=O)c3ccccc3n2)cc1OC (configuration not stated) | inactive |
| O=C1/C(=C/c2cccnc2)CCC/C1=C\c1cccnc1 | active: 2.06 µM |
| O=C(Cc1ccccc1)NC(NC(=S)Nc1cc(Cl)ccc1Cl)C(Cl)(Cl)Cl (configuration not stated) | inactive |
| COc1cccc(/C=N/NC(=O)c2ccc(=O)n(C)c2)c1O | active: 5.8 µM |
| O=C(CSCc1nc2ccccc2[nH]1)N1CCN(c2ccc(F)cc2)CC1 | active: 23.1 µM |
| CN(Cc1ccc(F)cc1)C(=O)c1cccc(OCc2ccccc2)c1 | inconclusive: 20.6 µM [inhibitor, single point] |
| CCCCC(=O)Nc1cc2nn(-c3ccc(OCC)cc3)nc2cc1C | inactive |
| Cc1nc(-c2ccc(S(=O)(=O)NCc3ccccn3)s2)cs1 | inactive |
| O=C(Nc1ccccc1-c1nnn(CC(=O)N2CCCc3ccccc32)n1)c1ccc(Cl)cc1 | inconclusive: 10.3 µM [inhibitor, partial curve, poor fit] |
| CCCCCSc1nc(N2CCOCC2)c2c(c1C#N)CC(C)(C)OC2 | inactive |
| ClC/C=C/C[n+]1ccccc1Cl | inactive |

| SMILES | Potency |
| --- | --- |
| CC(C)COc1cccc(C(=O)N(C)CC(=O)Nc2cccc3ccccc23)c1 | active: 18.4 µM |
| COc1ccc(CCNC(=O)C2CC(c3c(Cl)cccc3Cl)=NO2)cc1 (configuration not stated) | inconclusive: 29.1 µM [inhibitor, single point] |
| O=C(CCCc1cccs1)Nc1nc2c(s1)CCCC2 | inactive |
| COc1ccc2c(c1)C1OCCC1C(c1ccco1)N2 (configuration not stated) | active: 23.1 µM |
| O=C1CCC(OCc2ccccc2)CCN1[C@H](CSc1ccccc1)Cc1ccccc1 (some centres not stated) | inconclusive: 25.9 µM [inhibitor, single point] |
| Cc1cccc(OCCSc2nc3ccc(NC(=O)c4cccs4)cc3s2)c1 | active: 16.4 µM |
| COC(=O)[C@@]12C[C@@H](CC(=O)N3CCOCC3)C(=O)N(Cc3ccc4c(c3)OCO4)C1=CCC(C)(C)C2 | inconclusive: 14.6 µM [inhibitor, partial curve] |
| CC12C=CC(=O)C=C1CCC1C2C(=O)C[C@@]2(C)C1CCC2(O)C(=O)CO (some centres not stated) | inactive |
| COC(=O)[C@@]12C[C@@H](CC(=O)NCc3ccccc3)C(=O)N(Cc3ccccc3)C1=CCC(C)(C)C2 | active: 20.6 µM |
| O=C(Nc1ccc2c(c1)OCCO2)c1cccc2nc3ccccc3nc12 | active: 23.1 µM |
| Cc1ccc(NC(=O)c2c(C(=O)Nc3ccccc3)sc3nc(C)cc(=O)n23)c(C)c1 | inconclusive: 29.1 µM [inhibitor, single point] |
| C[C@@H]1Cn2cnc(C(=O)N[C@@H](C)c3ccccc3)c2C(=O)N1 | inactive |
| CCOC(=O)c1cn(-c2ccc(F)c(F)c2F)c2c(F)c(F)c(F)cc2c1=O | inconclusive: 29.1 µM [inhibitor, single point] |
| COc1cc2[nH]c(=S)n(C3CCN(Cc4ccccc4)CC3)c(=O)c2cc1OC | inconclusive: 29.1 µM [inhibitor, single point] |
| O=C(c1ccccc1)N1CCN(CC(O)Cn2ccc3ccccc32)CC1 (configuration not stated) | inactive |
| Cc1ccc(NC(=O)CSc2nc3ncc(Br)cc3[nH]2)cc1C | inconclusive: 16.4 µM [inhibitor, partial curve] |
| CCn1c(CN2CCCCC2)nc2cc(NC(=O)c3ccccc3[N+](=O)[O-])ccc21 | inconclusive: 20.6 µM [inhibitor, single point] |
| COc1ccc(/C=C(\C#N)c2c[nH]c3ccccc23)cc1 | active: 1.16 µM |
| CCOC(=O)C1C(=O)C=C(c2ccc(C)cc2)CC1c1ccccc1 (configuration not stated) | inconclusive: 29.1 µM [inhibitor, single point] |
| CCOCc1c(C(=O)OCC(=O)Nc2ccc(C)c(S(=O)(=O)N(C)C)c2)oc2ccccc12 | inconclusive: 23.1 µM [inhibitor, single point] |
| COC(=O)c1ccc(C2c3c(oc4ccc(Cl)cc4c3=O)C(=O)N2CCN2CCOCC2)cc1 (configuration not stated) | inactive |
| CC(=O)N1c2ccc(S(=O)(=O)NCC3CCC(C(=O)Nc4ccc(C)cn4)CC3)cc2CC1C (configuration not stated) | inconclusive: 25.9 µM [inhibitor, partial curve] |
| COc1ccc(C2=C(C)C(N3CCC(C(=O)Nc4cc(C)ccc4C)CC3)=NS2(=O)=O)cc1 | inactive |
| COc1ccc(-c2cnc(C(O)c3ccc(-c4ccccc4)cc3)[nH]2)cc1 (configuration not stated) | inconclusive: 29.1 µM [inhibitor, single point] |

| SMILES | Potency |
| --- | --- |
| COc1cccc(NC(=O)C(=O)NCCc2csc(-c3ccc(C)cc3)n2)c1 | inconclusive: 20.6 µM [inhibitor, single point] |
| CC(=O)c1sc(NC(C)c2ccccc2)nc1C (configuration not stated) | inactive |
| CCCCC(c1nnnn1Cc1ccco1)N1CCN(C(=O)c2ccco2)CC1 (configuration not stated) | inconclusive: 25.9 µM [inhibitor, partial curve] |
| FC(F)(F)c1ccccc1NC(=S)Nc1cccc2cnccc12 | inconclusive: 20.6 µM [inhibitor, partial curve, poor fit] |
| Cc1ccc(/C=N/NC(=O)CCn2nc(C)cc2C)c(C)c1 | inconclusive: 25.9 µM [inhibitor, partial curve] |
| O=C(O)COc1ccccc1/C=N/NC(=O)c1cc2ccccc2cc1O | inactive |
| CCN(C(=O)CCNC(=O)Cn1cnc2ccccc2c1=O)c1cccc(Cl)c1 | inactive |
| O=C(O)c1ccccc1-c1ccccc1C(=O)Nc1ccc2c(c1)CCC2 | inactive |
| CCOC(=O)[C@]12CCCC=C1N(Cc1ccco1)C(=O)[C@H](CC(=O)NCc1cccs1)C2 | inconclusive: 29.1 µM [inhibitor, single point] |
| C=CCn1c(=NC(=O)c2ccc(S(=O)(=O)N3CCCc4ccccc43)cc2)sc2cc(S(N)(=O)=O)ccc21 | inconclusive: 25.9 µM [inhibitor, single point] |
| COc1ccc(CN2C(=O)C(CC(=O)NCCN3CCOCC3)CC(C(=O)N3CCCCCC3)=C2C)cc1 (configuration not stated) | inactive |
| O=C(CCC(=O)Nc1cc(C(F)(F)F)ccc1Cl)N/N=C\c1cc([N+](=O)[O-])ccc1O | active: 10.3 µM |
| CN(C)S(=O)(=O)c1cccc(NC(=O)COC(=O)c2ccc3ccccc3n2)c1 | inactive |
| Cc1ccc(-c2cnc3cccnn23)cc1F | inconclusive: 18.4 µM [inhibitor, single point] |
| O=C(Nc1cccc2cccnc12)c1cccc2ccccc12 | inconclusive: 32.6 µM [inhibitor, single point] and inconclusive: 20.6 µM [inhibitor, single point] |
| S=C(Nc1ccccc1)Nc1nccs1 | active: 5.17 µM |
| CC(=O)Nc1cccc(NC(=O)COc2ccccc2C)c1 | active: 11.6 µM |
| Cc1cc(C)c(S(=O)(=O)c2ccccc2C)c(SCC(C)C)n1 | inconclusive: 29.1 µM [inhibitor, single point] |
| C=C(C)CNC(=S)N/N=C1\CCCCc2ccccc21 | inconclusive: 20.6 µM [inhibitor, single point] |
| CC[C@@H](C)[C@H](NC(=O)OCc1ccccc1)c1nnc([C@@H](NC(=O)OCc2ccccc2)[C@@H](C)CC)o1 | inconclusive: 29.1 µM [inhibitor, single point] |
| CCOC(=O)c1sc(C)c2c1NC(c1ccc(N(C)C)cc1)NC2=O (configuration not stated) | inconclusive: 29.1 µM [inhibitor, single point] |
| Cc1ccc(OCc2nnc(SCC(=O)c3cccc([N+](=O)[O-])c3)n2C)cc1 | inconclusive: 20.6 µM [inhibitor, single point] |
| O=C(NC1C2CCCC1CN(C1CC1)C2)c1ccc(Cl)cc1 (configuration not stated) | inconclusive: 29.1 µM [inhibitor, single point] |
| CCN(CC)C(=O)c1ccc(-c2nnc(Nc3cccc(O)c3)c3ccccc23)cc1 | inconclusive: 29.1 µM [inhibitor, single point] |

— PubChem BioAssay AID686979 (National Center for Advancing Translational Sciences (NCATS), 2013)
